# Laboratory results from the supplement of paper PMC8728848.
# The other results are listed elsewhere or left out.
# Columns and labels:
# Test in all cases: glycan array binding signal (z-score within array); higher = stronger binding
# Conditions in all cases: glycan notation: IUPAC condensed, linker removed
# [1] = biological target: Gal(b1-4)GlcNAc(b1-3)Gal(b1-4)GlcNAc(b1-3)[Gal(b1-4)GlcNAc(b1-3)Gal(b1-4)GlcNAc(b1-6)]GalNAc
# Method in brief: (§1)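 Glycan array data came from 3228 arrays in the Consortium for Functional Glycomics database, and only arrays with an available protein sequence were kept. Glycan names were put into IUPAC-condensed notation, and columns mapping to the same glycan were averaged. The binding signal is a within-array Z-score, averaged across arrays of one protein sequence run at different concentrations or buffers and across linkers. A negative Z-score can be read as non-binding.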
# [2] = biological target: Gal(b1-4)GlcNAc(b1-3)Gal(b1-4)GlcNAc(b1-6)[Gal(b1-3)]GalNAc
# Method in brief: as §1
# [3] = biological target: Gal(b1-4)GlcNAc(b1-3)Gal(b1-4)[Fuc(a1-3)]GlcNAc(b1-3)Gal(b1-4)[Fuc(a1-3)]GlcNAc
# Method in brief: as §1
# [4] = biological target: Gal(b1-4)GlcNAc(b1-3)GalNAc
# Method in brief: as §1
# [5] = biological target: Gal(b1-4)GlcNAc(b1-3)[Fuc(a1-3)GlcNAc(b1-6)]Gal(b1-4)Glc
# Method in brief: as §1
# [6] = biological target: Gal(b1-4)GlcNAc(b1-3)[Gal(b1-4)GlcNAc(b1-6)]Gal(b1-4)GlcNAc
# Method in brief: as §1
# [7] = biological target: Gal(b1-4)GlcNAc(b1-3)[GlcNAc(b1-6)]Gal(b1-4)GlcNAc
# Method in brief: as §1
# [8] = biological target: Gal(b1-4)GlcNAc(b1-6)Gal(b1-4)GlcNAc
# Method in brief: as §1
# [9] = biological target: Gal(b1-4)GlcNAc(b1-6)GalNAc
# Method in brief: as §1
# [10] = biological target: Gal(b1-4)GlcNAc(b1-6)[Gal(b1-3)]GalNAc
# Method in brief: as §1
# [11] = biological target: Gal(b1-4)GlcNAc(b1-6)[Gal(b1-4)GlcNAc(b1-3)]GalNAc
# Method in brief: as §1
# [12] = biological target: Gal(b1-4)GlcNAc6P
# Method in brief: as §1
# [13] = biological target: Gal(b1-6)Gal
# Method in brief: as §1
# [14] = biological target: Gal3S(b1-3)GalNAc
# Method in brief: as §1
# [15] = biological target: Gal3S(b1-3)GlcNAc
# Method in brief: as §1
# [16] = biological target: Gal3S(b1-3)[Fuc(a1-4)]GlcNAc
# Method in brief: as §1
# [17] = biological target: Gal3S(b1-4)Glc
# Method in brief: as §1
# [18] = biological target: Gal3S(b1-4)Glc6S
# Method in brief: as §1
# [19] = biological target: Gal3S(b1-4)GlcNAc
# Method in brief: as §1
# [20] = biological target: Gal3S(b1-4)[Fuc(a1-3)]Glc6S
# Method in brief: as §1
# [21] = biological target: Gal3S(b1-4)[Fuc(a1-3)]GlcNAc
# Method in brief: as §1
# [22] = biological target: Gal3S(b1-4)[Fuc(a1-3)]GlcNAc6S
# Method in brief: as §1
# [23] = biological target: Gal3S4S(b1-4)GlcNAc
# Method in brief: as §1
# [24] = biological target: Gal3S6S(b1-4)GlcNAc
# Method in brief: as §1
# [25] = biological target: Gal3S6S(b1-4)GlcNAc6S
# Method in brief: as §1
# [26] = biological target: Gal4S(b1-4)GlcNAc
# Method in brief: as §1
# [27] = biological target: Gal4S6S(b1-4)GlcNAc
# Method in brief: as §1
# [28] = biological target: Gal6P(b1-4)GlcNAc
# Method in brief: as §1
# [29] = biological target: Gal6S(b1-3)GlcNAc
# Method in brief: as §1
# [30] = biological target: Gal6S(b1-3)GlcNAc6S
# Method in brief: as §1
# [31] = biological target: Gal6S(b1-4)Glc
# Method in brief: as §1
# [32] = biological target: Gal6S(b1-4)Glc6S
# Method in brief: as §1
# [33] = biological target: Gal6S(b1-4)GlcNAc
# Method in brief: as §1
# [34] = biological target: Gal6S(b1-4)GlcNAc6S
# Method in brief: as §1
# [35] = biological target: GalNAc(a1-3)Gal
# Method in brief: as §1
# [36] = biological target: GalNAc(a1-3)GalNAc
# Method in brief: as §1
# [37] = biological target: GalNAc(a1-3)GalNAc(b1-3)Gal(a1-4)Gal(b1-4)Glc
# Method in brief: as §1
# [38] = biological target: GalNAc(a1-3)GalNAc(b1-3)Gal(a1-4)Gal(b1-4)GlcNAc
# Method in brief: as §1
# [39] = biological target: GalNAc(b1-3)Gal
# Method in brief: as §1
# [40] = biological target: GalNAc(b1-3)Gal(a1-4)Gal(b1-4)GlcNAc
# Method in brief: as §1
# [41] = biological target: GalNAc(b1-3)Gal(a1-4)Gal(b1-4)GlcNAc(b1-3)Gal(b1-4)Glc
# Method in brief: as §1
# [42] = biological target: GalNAc(b1-3)Gal(a1-6)Gal(b1-4)Glc
# Method in brief: as §1
# [43] = biological target: GalNAc(b1-3)GalNAc
# Method in brief: as §1
# [44] = biological target: GalNAc(b1-3)GlcNAc
# Method in brief: as §1
# [45] = biological target: GalNAc(b1-4)Gal(b1-4)Glc
# Method in brief: as §1
binder,measurement,setting,value
"CFEM-PPl (Pichia pastoris), F2QPV1 (protein) AVATPPACLLACAAEVVKESSDCDALNNIQCICENEGSAIHACLESTCPDGLSSTALQSFEDVCESVGTEANLDE",glycan array binding signal (z-score),[1],0.105
same,glycan array binding signal (z-score),[2],1.03
same,glycan array binding signal (z-score),[3],-0.205
same,glycan array binding signal (z-score),[4],-0.054
same,glycan array binding signal (z-score),[5],-0.296
same,glycan array binding signal (z-score),[6],0.238
same,glycan array binding signal (z-score),[7],-0.226
same,glycan array binding signal (z-score),[8],0.761
same,glycan array binding signal (z-score),[9],0.009
same,glycan array binding signal (z-score),[10],1.36
same,glycan array binding signal (z-score),[11],0.459
same,glycan array binding signal (z-score),[12],-0.187
same,glycan array binding signal (z-score),[13],0.626
same,glycan array binding signal (z-score),[14],-0.378
same,glycan array binding signal (z-score),[15],-0.178
same,glycan array binding signal (z-score),[16],-0.247
same,glycan array binding signal (z-score),[17],-0.281
same,glycan array binding signal (z-score),[18],-0.086
same,glycan array binding signal (z-score),[19],-0.165
same,glycan array binding signal (z-score),[20],0.302
same,glycan array binding signal (z-score),[21],-0.308
same,glycan array binding signal (z-score),[22],-0.288
same,glycan array binding signal (z-score),[23],-0.257
same,glycan array binding signal (z-score),[24],-0.303
same,glycan array binding signal (z-score),[25],-0.019
same,glycan array binding signal (z-score),[26],-0.282
same,glycan array binding signal (z-score),[27],-0.217
same,glycan array binding signal (z-score),[28],-0.15
same,glycan array binding signal (z-score),[29],-0.164
same,glycan array binding signal (z-score),[30],-0.035
same,glycan array binding signal (z-score),[31],0.163
same,glycan array binding signal (z-score),[32],1.43
same,glycan array binding signal (z-score),[33],0.191
same,glycan array binding signal (z-score),[34],0.881
same,glycan array binding signal (z-score),[35],-0.296
same,glycan array binding signal (z-score),[36],-0.327
same,glycan array binding signal (z-score),[37],-0.317
same,glycan array binding signal (z-score),[38],-0.223
same,glycan array binding signal (z-score),[39],-0.325
same,glycan array binding signal (z-score),[40],-0.405
same,glycan array binding signal (z-score),[41],-0.277
same,glycan array binding signal (z-score),[42],-0.307
same,glycan array binding signal (z-score),[43],-0.264
same,glycan array binding signal (z-score),[44],-0.373
same,glycan array binding signal (z-score),[45],-0.013
